# Inconclusive results, whose numbers are uncertain, are shown with a selection of clear calls. Potencies of inconclusive entries are left out as doubtful fits. The source made the active and inactive calls. The call rests on the fitted dose curve; in most records, active means well fitted inhibition curve with a large enough effect; inconclusive means small, poorly fitted or top-dose-only effect; inactive means no such curve, though single readings can be large or run the other way.
# Molecular target: N-terminal Xaa-Pro-Lys N-methyltransferase 1 (Homo sapiens) (UniProt Q9BV86)
# Sequence of UniProt Q9BV86 (Q9BV86 whole entry, looked up): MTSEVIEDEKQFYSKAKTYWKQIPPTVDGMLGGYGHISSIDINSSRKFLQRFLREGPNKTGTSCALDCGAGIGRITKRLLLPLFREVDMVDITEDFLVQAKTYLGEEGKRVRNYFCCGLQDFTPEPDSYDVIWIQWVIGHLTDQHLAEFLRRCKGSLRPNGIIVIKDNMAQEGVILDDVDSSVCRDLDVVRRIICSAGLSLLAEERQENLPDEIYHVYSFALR
# Assay: Confirmatory qHTS for Inhibitors of N-terminal methyltransferase 1 (NTMT1): MTaseGlo Assay (AID 1645874); further: nearly all actives have a fitted effect of over 65% in size
# Conditions: NTMT1 enzyme, MTase-Glo SAH luminescence; series mostly up to 100 µM
# Outline: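 qHTS format: NTMT1 125 nM, SAM 100 uM, peptide SPKRIA 1 uM final; 15 min compound preincubation, 30 min reaction at room temperature. MTase-Glo luminescence.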
# Potency means the concentration at half of the fitted maximal effect; tags describe the fitted curve by direction and shape.
row,Structure (SMILES),Potency
1,Cc1ccnc(NC(=S)N2CCN(c3ccc(Cl)c(Cl)c3)CC2)c1,"inconclusive [inhibitor, partial curve]"
2,Cc1cc(C)nc(NC(=S)N2CCN(c3ncccc3C#N)CC2)c1,active: 22.4 µM
3,CC(=O)Nc1sc2c(c1-c1nc3ccccc3s1)CCN(C(C)C)C2,"inconclusive [inhibitor, partial curve]"
